Data on 78 molecules can be found in paper PMC12040169 (PLOS Biology, 2025).

Some of the results follow.

The test system of the experiment is T1, C. trachomatis L2/434/Bu expressing GFP (CTL2-GFP).
T1 construct: L2/434/Bu GFP intracellular growth in HeLa cells
The arrangement: species or system HeLa; C. trachomatis total inclusion area by high-content imaging, normalised to DMSO. The following applies: total inclusion area; 28.5 h, 10 µM; inhibitor. A digest of the protocol:
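High-content imaging followed the bulk GFP/resorufin measurement: fixed, Hoechst-stained cells were scored for GFP inclusions and host nuclei per well. Total inclusion area and count served as growth proxies, nuclei number as the viability proxy. MIC calculation matched the bulk assay.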
As to `CCC(CO)Nc1nccnc1-c1ccsc1` (stereo not drawn) [CBK036606], the “% of control remaining” value was 105.247. `COC(=O)c1ccc(NS(=O)(=O)Cc2ccccc2)cc1` [CBK028699]: the “% of control remaining” value stood at 103.722.

`COc1ccc(C(=O)Nc2ccccc2C(=O)N2CCOCC2)cc1Br` [CBK269923]: the “% of control remaining” value is on record as 87.3419.

For the molecule `CC(CN(C)C)C(=O)c1cn(C)c2ccccc12` (stereo not drawn) [CBK015540], the “% of control remaining” value is on record as 54.0475. The same measure for `OCCN(Cc1cccnc1)CC1(c2ccc(Cl)cc2)CC1` [CBK282943]: 84.6906; for `Cc1cc(N)cc(C)c1O` [CBK012062C]: 14.4517; for `O=C(c1cc(C2CC2)on1)N1CCc2ncc(Cl)cc2C1` [CBK284855]: 83.1111. The figure for `O=C(NCc1ccco1)NC(=O)c1ccc(Cl)cc1` [CBK269461] is 118.536.

Regarding `COc1cc(C(=O)N2CCC3(CC2)CC(=O)c2cc(CN4CCN(C)CC4)ccc2O3)cc(OC)c1C` [CBK169185], the “% of control remaining” value is on record as 82.043.

As for `O=S(=O)(Nc1ccc(N2CCNCC2)nc1)c1ccc(F)cc1F` [CBK000022C], the “% of control remaining” value is on record as 45.3984. Turning to `O=C1NC(=O)C(CCCCN2CCCC3(CCN(C(=O)Cc4c[nH]c5ccccc45)C3)C2)N1` (stereo not drawn) [CBK132059], the “% of control remaining” value is given as 105.752. For the molecule `COc1ccc(C)cc1NC(=O)Nc1nc(C)cs1` [CBK006565], the “% of control remaining” value is given as 98.4461. The same measure for `CC(=O)Nc1ccc(S(=O)(=O)c2cc(O)ccc2O)cc1` [CBK261372]: 98.3427; for `CCNC(=O)c1cc2c(=O)n3ccccc3nc2n1C` [CBK287556]: 103.648. The figure for `Cn1cccc1C(=O)Nc1cc2ccccc2c(N2CCNCC2)n1` [CBK036347T] is 109.638; for `Cc1cnc(C(=O)N2CCC3(CC2)CC(=O)c2cc(Cl)cc(Cl)c2O3)cn1` [CBK156502] it is 91.2661; for `Clc1ccc(CN2CCC(Oc3cncc(OCC4COc5ccccc5O4)n3)C2)cc1` (stereo not drawn) [CBK084364] it is 89.6135.

As to `Fc1ccc(C(c2nnnn2C2CCCCC2)N2CCCCC2)cc1` (stereo not drawn) [CBK141670], the “% of control remaining” value amounted to 3.998. The same measure for `CC(C)c1ccc(NS(=O)(=O)c2csc3ccnc(N4CCNCC4)c23)cc1` [CBK042343C]: 54.5985; for `CCc1ccc(C(O)CNC2CCN(CC(F)F)CC2)cc1` (stereo not drawn) [CBK304144]: 24.5904. The figure for `Cc1ccc(NC(=O)c2cnc(SCc3ccc(F)cc3)n(C)c2=O)cc1C` [CBK287674] is 72.7394; for `CC(C)CNc1ncc(-c2ccc(N3CCOCC3)cc2)n2ccnc12` [CBK091273] it is 90.8756.

As for `COc1cccc(-c2ccc(C(=O)Nc3ccc4c(c3)OCO4)c(N3CCOCC3)n2)c1` [CBK076509], the “% of control remaining” value was 107.176. On to `CCn1ncc(S(=O)(=O)Nc2ccc3c(c2)cc(C)n3C)c1C` [CBK282761], for which the “% of control remaining” value is on record as 73.7913. Regarding `O=C1NC2(CCCCC2)C(=O)N1CCS(=O)(=O)Oc1ccc(Br)cc1` [CBK261303], the “% of control remaining” value came to 97.9596. The same measure for `c1ccc(CCNc2nc(-c3ccc(N4CCOCC4)cc3)cn3ccnc23)nc1` [CBK037271]: 131.632. The figure for `O=C(NC1CC1)[C@H]1O[C@H](CCN2CCN(c3ccccc3)CC2)CC[C@@H]1O` [CBK288717] is 100.912; for `O=C(O)c1cc(/C=C/c2ccc(Br)cc2)nc2ccccc12` [CBK299805] it is 84.6925; for `COc1ccc(C(NC(=O)C2CC=CCC2C(=O)O)c2ccccc2)cc1` (stereo not drawn) [CBK264264] it is 99.0498. The figure for `CC1=C[C@@H](CNC(=O)c2cccnc2)[C@H](C(C)C)C[C@H]1CC(=O)N1CCOCC1` [CBK289053] is 110.868; for `O=C(CCN1CCn2nc(C(O)C3CC3)cc2C1)NCc1cccs1` (stereo not drawn) [CBK306603] it is 27.3041. Regarding `O=S(=O)(CCN1CCC(Cc2ccccc2)CC1)c1ccccc1` [CBK126386], the “% of control remaining” value was determined as 103.329. As to `O=C(O)CCSCC(=O)c1ccc(NS(=O)(=O)c2ccccc2)cc1` [CBK300504], the “% of control remaining” value is given as 90.0975. The same measure for `c1ccc2c(c1)n[n+]1c3ccccc3[n-]n21` [CBK260974]: 106.145.

For the molecule `CN(C)CCN(Cc1nc2ccccc2[nH]1)Cc1cccs1` [CBK283020], the “% of control remaining” value was found to be 118.913.

Consider `Cc1c(S(=O)(=O)Nc2nnn[nH]2)sc2ccc(Cl)cc12` [CBK062392], for which the “% of control remaining” value was found to be 98.5727. Turning to `CN1CCN(c2ccc(C(=O)N3CCC(F)CC3)cc2)CC1` [CBK200265], the “% of control remaining” value is recorded as 100.209. The figure for `CCCC[C@H]1CC[C@H](C(=O)Oc2ccc(OC(C)C(=O)O)cc2)CC1` (stereo partly drawn) [CBK160854] is 100.96; for `CC(OC(=O)c1ccc2nccnc2c1)c1cccc([N+](=O)[O-])c1` (stereo not drawn) [CBK297901] it is 78.3678. The figure for `COc1ccc(SC(C)C(=O)N2CCN(c3ccc([N+](=O)[O-])nc3)CC2)cc1` (stereo not drawn) [CBK298282] is 113.659; for `O=C(O)c1cccc2c1C(=O)N(Cc1ccncc1)C2` [CBK291146] it is 117.77. The same measure for `Cc1cccc(CN2CCC(NC(=O)Cn3ccccc3=O)CC2)c1` [CBK305667]: 36.1599; for `CC(=O)Nc1ccc(CN2Cc3nc[nH]c3C[C@H]2c2nc(-c3ccc(F)cc3)no2)cc1` [CBK288956]: 98.5565; for `CN(C)CCN(C)c1cc(-c2cccc(C(=O)O)c2)nc2ccnn12` [CBK037206]: 86.6374. `CC(NC(=O)C1CCN(Cc2ccc(Oc3ccccc3)cc2)CC1)c1ccccc1` (stereo not drawn) [CBK148618]: the “% of control remaining” value was determined as 74.112. The figure for `CC(=O)c1ccc(-c2nc(NC(=O)CC3OC(=O)c4ccccc43)cnc2-c2cccc(C)c2)s1` (stereo not drawn) [CBK037152] is 121.017; for `CC(C)(CNC(=O)Cn1cccc(C(=O)Nc2ccc(F)cc2)c1=O)c1ccccc1F` [CBK286067] it is 99.0443. The figure for `CC(C)(CO)CNc1cncc(-c2ccc(O)cc2)n1` [CBK065386] is 117.451; for `FC(F)(F)Oc1ccc(-n2cc(-c3ccsc3)nn2)cc1` [CBK113096] it is 107.987; for `Cn1cc(CCCCNC(=O)Cc2c[nH]c3ccc(Cl)cc23)cn1` [CBK306364] it is 71.4094. The same measure for `O=C1[C@@H]2CCCN2C(=O)c2ccccc2N1CCN1CCCC1` [CBK282857]: 89.5825; for `CCNC(=O)N1CC2(CCN(CC3COc4ccccc4O3)CC2)c2ccccc21` (stereo not drawn) [CBK143944]: 100.917; for `CCN1CCN(C(=O)CN(C)S(=O)(=O)c2ccc(Cl)cc2)CC1` [CBK267218]: 59.5255. As to `O=c1[nH]c(=O)c2cc(S(=O)(=O)NCc3ccccc3CN3CCCC3)ccc2[nH]1` [CBK286395], the “% of control remaining” value was 80.6308.

On to `O=C(CSc1nnc(-c2ccc(F)cc2)n1-c1ccccc1)Nc1cccc2ccccc12` [CBK267592], for which the “% of control remaining” value is reported as 86.1902.

As for `COc1ccc(C(=O)Nc2cc(C)c3c(=O)oc4ccccc4c3n2)c(OC)c1` [CBK291231], the “% of control remaining” value stood at 116.023. `COC(=O)Nc1ccc2c(c1)N(C(=O)CCN1CCOCC1)c1ccccc1CC2` [CBK261284C]: the “% of control remaining” value is given as 95.8109. The figure for `C=CCn1c(SCC(=O)Nc2ccnc3ccccc23)nnc1-c1cccnc1` [CBK268723] is 81.3561; for `Cc1cc(=O)n2ccc(CN3CCOCC3)c(O)c2n1` [CBK262899C] it is 91.9188. Consider `Cc1nc2c(C(=O)NCC3CCCO3)cnn2c(C)c1Cc1cccnc1` (stereo not drawn) [CBK162160], for which the “% of control remaining” value came out at 45.9935. The same measure for `CCN(CC)c1ccc(C(=O)Cn2c(=O)n(C(=O)c3cccc(S(C)(=O)=O)c3)c3ccccc32)cc1` [CBK106500]: 64.4532; for `CCn1c(C2CCN(C(=O)c3cc(C(F)(F)F)n[nH]3)CC2)nn(C)c1=O` [CBK307184]: 62.4979.

For the molecule `CCCOc1ccc(-c2cn(CC(=O)NN)cn2)cc1` [CBK261790], the “% of control remaining” value is reported as 108.45. For `Cc1noc(C)c1C(=O)Nc1cnc(-c2cccc(C(F)(F)F)c2)c(-c2cccnc2)n1` [CBK036727], the “% of control remaining” value came out at 66.1272. The same measure for `N#CCC(=O)Nc1ccc(C(=O)N2CCN(c3ccccc3)CC2)cc1` [CBK306060]: 54.2529; for `Cc1cc2c(o1)CCc1sc(N(C)C(=O)C3CC(=O)N(C)C3)nc1-2` (stereo not drawn) [CBK283980]: 75.9855; for `Cc1cccc(-c2ncc(NC(=O)CCc3cccc(Cl)c3)nc2-c2cccnc2)c1` [CBK037201]: 75.9425. The same measure for `C[C@@H](Nc1cncc(-c2ccc(F)cc2F)n1)c1ccccc1` [CBK065676]: 69.887; for `O=C(c1coc2ccc(O)c(CN3CCCCC3)c12)C1CC1` [CBK263206C]: 101.767. The same measure for `COc1ccc(OC)c(CN(C(=O)c2oc3ccc(F)cc3c2C)c2cnn(C)c2)c1` [CBK298278]: 89.8197. On to `O=[N+]([O-])c1ccc(CN(CCc2ccccc2)Cc2ccccc2)cc1` [CBK261866], for which the “% of control remaining” value came out at 98.9547.

With `CC(NC(=O)c1cn(-c2ccccc2)nc1-c1cccnc1)c1ccccn1` (stereo not drawn) [CBK295660], the “% of control remaining” value is recorded as 112.945.

For the molecule `COc1ccc(C(=O)Nc2cc(C)c3c(=O)oc4ccccc4c3n2)cc1` [CBK287435], the “% of control remaining” value is given as 80.5924.

Consider `O=C(O)C1CC=CCC1C(=O)c1c[nH]c2ccccc12` (stereo not drawn) [CBK286603], for which the “% of control remaining” value was 91.2506. Take `N#Cc1ccccc1COC(=O)c1cc(-c2ccc(/C=C/c3[nH]c(=O)[nH]c(=O)c3[N+](=O)[O-])o2)ccc1Cl` [CBK268888]: the “% of control remaining” value was determined as 77.3761. In the case of `Cc1ccc(C(=O)CC(C(=O)O)c2cn(CCC#N)c3ccccc23)cc1` (stereo not drawn) [CBK287194], the “% of control remaining” value is reported as 93.8796. The figure for `Cc1nn(Cc2ccccc2)c(C)c1NC(=O)CSc1nc2c(c(C(F)(F)F)n1)CCc1ccccc1-2` [CBK266112] is 0. Consider `O=C(CSCc1ccccc1Cl)Nc1ccc(-c2nnc(-c3ccccc3)o2)cc1` [CBK268656], for which the “% of control remaining” value is recorded as 107.061.
